Laboratory results from PMC7819943, “Rice protein-binding microarrays: a tool to detect cis-acting elements near promoter regions in rice”.
The other results are listed elsewhere or left out.

The sequences below were run against T1, OsWOX13 (Oryza sativa, UniProt Q5QMM3 1-267) (assay: protein-binding microarray (RPBM); PBS, 2% BSA, 51.3 ng/ul salmon testes DNA, 50 uM zinc acetate, 200 nM TF, 25 C, 1 h; high values mean tight binding). Settings: protein: recombinant; tags: N-terminal polyhistidine and DsRed monomer fusion (pET32a); label: CyDye5-dUTP incorporated in the synthesized complementary strand; 3' TTTTT single-stranded linker to array surface; dsDNA, one strand shown.
T1 sequence: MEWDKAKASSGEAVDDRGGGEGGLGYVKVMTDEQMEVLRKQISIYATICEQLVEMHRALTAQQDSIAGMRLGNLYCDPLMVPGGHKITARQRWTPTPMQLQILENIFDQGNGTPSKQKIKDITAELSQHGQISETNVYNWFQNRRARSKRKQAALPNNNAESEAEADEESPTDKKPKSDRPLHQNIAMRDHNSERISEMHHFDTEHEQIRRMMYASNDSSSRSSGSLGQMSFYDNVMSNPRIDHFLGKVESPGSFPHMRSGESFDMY
Summary of the method: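 The binding signal is fluorescence intensity per array feature (arbitrary units). Readings came from an Axon 4000B scanner after a washed, 2% BSA-blocked, double-stranded custom Agilent array had been incubated for 1 h at 25 °C with 200 nM protein and 50 µM zinc acetate. The protein was a Ni–NTA-purified transcription factor fused N-terminally to polyhistidine and DsRed, expressed in E. coli BL21-CodonPlus.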
In the case of “AGATCAATCACAGAAGACACGAGATTTAACGTGGAAAACCCGGAGTCACCTAGTGCAG”, the binding signal was 35200 fluorescence intensity (a.u.). In the case of “TGTGATTTCCTGCTTCTTCTGACTATAAGGTTTATTAGTGCGGAGTCACCTAGTGCAG”, the binding signal was 10700 fluorescence intensity (a.u.). For “TCATTAATTTACAGCCGTTGGATCGGTAGATTACATCCCACGGAGTCACCTAGTGCAG”, the binding signal was 18800 fluorescence intensity (a.u.). “CTCAGTCTATTTTAGATTATATTTGTATTAGCATGCTTGACGGAGTCACCTAGTGCAG” was tested, and the binding signal was 5810 fluorescence intensity (a.u.). With “GCTTATTTGACTGGTGTATTTCGTTTGGGCATTGAGACCACGGAGTCACCTAGTGCAG” the binding signal was 15900 fluorescence intensity (a.u.). “CATGATTATATCGGTTAATGGAGGTAATTGTTTGTTGGTACGGAGTCACCTAGTGCAG” was tested, and the binding signal was 51400 fluorescence intensity (a.u.). For “TTTGATTTAGTAGGCAACCAATGGGACTCTCAATAACATTCGGAGTCACCTAGTGCAG”, the binding signal was 7150 fluorescence intensity (a.u.). “ACCATTATTTAACATGTCCAATTTTAATCGTCCGTCTTATCGGAGTCACCTAGTGCAG” was tested, and the binding signal was 3360 fluorescence intensity (a.u.). With “TTGCTAATGACTAGTAGTGATTCAGTTTAGGCTCTTGACACGGAGTCACCTAGTGCAG” the binding signal was 6100 fluorescence intensity (a.u.). With “AATTAATCAGGCCCTGTTACTGAATCGAACAGCCCAAACGCGGAGTCACCTAGTGCAG” the binding signal was 9370 fluorescence intensity (a.u.). In the case of “AAAATTTTGATTAATCTCGTATTGGGTTCTTGTATGGAAACGGAGTCACCTAGTGCAG”, the binding signal was 29200 fluorescence intensity (a.u.). With “AAAACCAATCAGCAACCCAATCCAACCTTCCTCCGTCCGACGGAGTCACCTAGTGCAG” the binding signal was 14700 fluorescence intensity (a.u.). “ATTTAACTTTAACTTCCTCGTTTTCCGTTAGCACACTTTTCGGAGTCACCTAGTGCAG” was tested, and the binding signal was 3250 fluorescence intensity (a.u.). “CAACACATGATTGCCGGGCTTTCTTCCCTCTCGTCCTGAGCGGAGTCACCTAGTGCAG” was tested, and the binding signal was 32000 fluorescence intensity (a.u.). For “AGTTGATCTGAACTTTAGACAGAATTGCAACAATCGGTGTCGGAGTCACCTAGTGCAG”, the binding signal was 7580 fluorescence intensity (a.u.). For “TAAGATGACAAATTGTCACGGTAATAATAAAATGACTAGTCGGAGTCACCTAGTGCAG”, the binding signal was 9250 fluorescence intensity (a.u.). “TTAATTACTGGTTAACCAATGGTGCAATCCGCTGCCGGAGCGGAGTCACCTAGTGCAG” was tested, and the binding signal was 5630 fluorescence intensity (a.u.). In the case of “TTTGGGTGATTATCTGATGATGCTATGGTTTGGATACAATCGGAGTCACCTAGTGCAG”, the binding signal was 16100 fluorescence intensity (a.u.). In the case of “CTAAGTACAATTAGTGAATTTGACAATCAAGTGCTACTGTCGGAGTCACCTAGTGCAG”, the binding signal was 12200 fluorescence intensity (a.u.). In the case of “ATGGGCCACGGGCCCACGGACCATACGCATAGGATTCAACCGGAGTCACCTAGTGCAG”, the binding signal was 59500 fluorescence intensity (a.u.). In the case of “TCATAAATTTTGATAATTTGATCCTTTGTAAAACTATTTTCGGAGTCACCTAGTGCAG”, the binding signal was 14000 fluorescence intensity (a.u.). With “CTAATATCAGATTTGATTAATGTAACAAGGATCGATACAACGGAGTCACCTAGTGCAG” the binding signal was 13000 fluorescence intensity (a.u.). For “GGGGAGACAATTACATTGAGATTTGTAAAAGTTAAGAGCACGGAGTCACCTAGTGCAG”, the binding signal was 5050 fluorescence intensity (a.u.).
